Test results as given in the supplement of paper PMC11417369.
± gives the standard deviation of the averaged measurements. The list shows a part of the results.

test system: PfAP2-I AP2 domain 3 (GST-tagged); assay: gcPBM binding intensity (ln(normalized median fluorescence intensity)); higher = stronger DNA binding
In short: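 After 1 h on an Agilent 4 × 180k array of primer-extended double-stranded 36-bp intergenic genomic probes and negative controls, bound GST-tagged P. falciparum DNA-binding domains were detected with Alexa488 anti-GST antibody and scanned at 488 nm. The domains had been expressed in E. coli, and binding took place in 1× PBS with 1% milk, 0.2 mg/ml BSA, 0.5% salmon testes DNA and 0.03% Triton X-100. Binding intensity is the highest Masliner-normalised natural-log median intensity across replicate spots of either probe orientation.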

Row | Sequence | gcPBM binding intensity (ln)
1 | AAAAAACATACATACACACACATAAATATTTATATT [CACACA_site7300] | 7.84 ± 0.44
2 | CACAGATAAATTAACACACACACACCGATATATATA [CACACA_site6049] | 8.33 ± 0.57
3 | AGAAAAAACAAAAGAGAAATGAAAAAAAAAAAAAAA [XGTACX_negctrl_site482] | 7.86 ± 0.66
4 | TAAAATAATATTTATGTGCACATATAATTATTAATT | 10.395 ± 0.007
5 | ATATATATTTTTATAACACACAATGATGTACATTAC [CACACA_site1076] | 8.06 ± 0.42
6 | TTTGTGCTTATCCTAACACACACAACATATAAGAAA [CACACA_site9091] | 8.87 ± 0.092
7 | TTATATATACCATAATGTACTCTATTATATAAAAAA [XGTACX_site7464] | 7.96 ± 0.45
8 | TGTGTAGCTAGGGGGTTGCTAATTTTTGTTTTGACC [CACACA_negctrl_site634] | 9.02 ± 0.26
9 | GTCTCCTTTATTTTTGGTACAGATAAGATAAAAGGA [XGTACX_site1591] | 8.1 ± 0.28
10 | AATCAAAATATATCTACACACATTTAAGTAACCCAT [CACACA_site5846] | 7.78 ± 0.68
11 | TATAACATTATTTTGTGTACACATTCGGTTATATTA [XGTACX_site6310] | 7.83 ± 0.5
12 | GTGTTCATATATAGCCGTACATATGTCTTATGAACG [XGTACX_site5647] | 8.07 ± 0.26
13 | ATTATCAAAAAAAAAAAAAAAAAAAAAAAAAAAAAA [CACACA_negctrl_site1118] | 8.33 ± 0.85
14 | ATATAGATCTATAATACACACTTATGAAATGTCTAA [CACACA_site6946] | 7.78 ± 0.48
15 | TTGTTTCCGATGAAAGAAAGGAAATTATAATATATC [GTGCAC_negctrl_site516] | 7.81 ± 0.57
16 | GATTCATTTCGTAATACACACAACAAATATTTCAAA [CACACA_site1772] | 8.1 ± 0.43
17 | AATGTAAATAAGTGTACACATATATAATACATACAT [CACACA_site4938] | 8.36 ± 0.099
18 | TACCTTATATTATATACACACATATAATATAATATA [CACACA_site1328] | 7.88 ± 0.46
19 | TATTGGATCACACAAAAATGTATAAATAAATAGAAA [TGCATGCA_negctrl_site490] | 7.7 ± 0.61
20 | ATTCAATAAACGTATTGTACAAAAGAACGATATATT [XGTACX_site2533] | 7.88 ± 0.64
21 | TGAGAATAAAAAAAAGGGATTATTAGATTTCTCCTT [TGCATGCA_negctrl_site326] | 7.13 ± 0.97
22 | ATCATAACTTGATACGCACACGTTATATAAATAAAA [CACACA_site4955] | 8.13 ± 0.25

Row | Sequence | gcPBM binding intensity (ln)
23 | AAAAAAATAAGGTGCACACAAAAAAAAAAAAAAAAA [CACACA_site812] | 10.9 ± 0.71
24 | AAGACAAATTGTGACACACACAAAAAAAAAAAAAAA [CACACA_site3727] | 7.94 ± 0.57
25 | ACATATGGCACATATGTACACACGTATAGATAATAT [CACACA_site2024] | 9.05 ± 0.22
26 | CTAAAAAAATAATAAAGTACACAAACGAATATATAA [XGTACX_site668] | 8.03 ± 0.41
27 | TTGAAAAATCAGCACACACACAAATACATACATATT [CACACA_site7505] | 8.03 ± 0.48
28 | TTTTTTTTTTTTTTTGCACACTATATTTAATATAAG [CACACA_site2444] | 9.42 ± 0.21
29 | CTTTTTTGGTACATCACACATTTTTACATTCCCTTT [CACACA_site4957] | 8.19 ± 0.61
30 | TTAATAGTGGAAATATGTACATAATTTTGGTCTTTT [XGTACX_site1664] | 8.07 ± 0.54
31 | CTGTTCAAAATATGAACACACACATATATATATATA [CACACA_site8638] | 9.34 ± 0.3
32 | CCATATTTAATAAAATGTACTCATTCTTTTATTTTA [XGTACX_site7802] | 7.67 ± 0.67
33 | CACATAAAAAAATAAACACACATATGTATATAAATA [CACACA_site7483] | 7.71 ± 0.57
34 | CTTTAAATGATGTAAACACACACATATACATTATTA [CACACA_site9035] | 7.7 ± 0.42
35 | TAAAAAAAAATAAAAAGTACATATATATATATATAT [XGTACX_site1155] | 9.26 ± 0.27
36 | AATGGAAAAATAGGCACACACACATAAATACAGATA [CACACA_site4844] | 8.01 ± 0.5
37 | AGTGCTACTCATGATTGAATAGAGGAAAAGGCGGTG [GTGCAC_negctrl_site49] | 8 ± 0.53
38 | AATATGAAACAAGACGCACACATAAATAAATAAATA [CACACA_site326] | 8.29 ± 0.6
39 | ACAAAATATTTTTCTTCACACATCCATTCAACATTT [CACACA_site5886] | 8.06 ± 0.62
40 | ACAAAAAAAAAAAAAATACACACACATAAAAAAAAA [TGCATGCA_negctrl_site333] | 7.87 ± 0.76
41 | TATATATATATATATATTAATAATTAATATAAAAGA [XGTACX_negctrl_site32] | 9.29 ± 0.31
42 | AATCAAAACATTAAAAAGAAAAAATATATATATATA [CACACA_negctrl_site366] | 9.41 ± 0.38
43 | TATAAATGATTAATTTGTACATATTTTACTTAATTG [XGTACX_site5271] | 7.26 ± 0.42
44 | CCATTCAAATTTCGCACACACATACAAAAAAAAAAA [CACACA_site3093] | 8.49 ± 0.35

Row | Sequence | gcPBM binding intensity (ln)
45 | TAAATAAATAAATATATATATATATATATATATATA [XGTACX_negctrl_site70] | 9.5 ± 0.96
46 | TTGATGATATCATTTTGTACTTATACGTATTTAAAA [XGTACX_site148] | 7.75 ± 0.35
47 | GATTCCTTTAACCCTGCACACATACATACATTTATA [CACACA_site9308] | 8.75 ± 0.98
48 | TATATTTCTTATTACATACACACATATACATATATG [CACACA_site3202] | 7.88 ± 0.47
49 | TAATAATATAATAATACACACTCATTATATATATAA [CACACA_site6045] | 7.66 ± 0.4
50 | ATAGATGCATATTATACACACATATGTAAATACATT [CACACA_site4691] | 7.84 ± 0.67
51 | CCACTATATAAAATCACACATTTATATTATACATAT [CACACA_site4570] | 7.72 ± 0.65
52 | ATAATAGTTAAATGTACACACTAACTACATGGAATA [CACACA_site5753] | 7.92 ± 0.4
53 | TTGAAGTTAATAAAAACTTTATACATGAAATTATTT [CACACA_negctrl_site684] | 7.26 ± 0.53
54 | AAAAAAAGAAATTAGGTGCATAGCATTAACCGATAA [GTGCAC_site9582] | 9.415 ± 0.078
55 | TTTATTTTAATTTATTGTACATTGTTATCAAGTGCA [XGTACX_site1110] | 7.67 ± 0.59
56 | TATTGGTAATGTAAATGTACATATAGATATTTACAT [XGTACX_site1922] | 7.53 ± 0.53
57 | TTATATGTTTTGTGTACACAATTTATTAAATTAATA [CACACA_site5645] | 8.38 ± 0.16
58 | ATAGGAAAAAGTATTGGTACACATACATATACGTTA [XGTACX_site5819] | 7.55 ± 0.49
59 | TATATATTTTTTTCATGTACATATAAATTAATTAAA [XGTACX_site8680] | 7.96 ± 0.4
60 | ACACAAAAAATTAAGTGTACTCATCAAGAAAAAAAA [XGTACX_site3456] | 7.78 ± 0.52
61 | GATTTAATAGATACGAGTACAGAAATTGTATACATA [XGTACX_site7563] | 8.01 ± 0.26
62 | TACATATTTTTCTTTTCACACATGGAAAAAAAAGGT [CACACA_site5146] | 10.1 ± 0.54
63 | TATTTTTTTTTTCACTGTACATACAACAACAAATAT [XGTACX_site8835] | 8.1 ± 0.4
64 | CCCTTAATTTAAAACACACAAACAAATAAGTTAGTT [CACACA_site3793] | 7.68 ± 0.33
65 | AATATATTTATTATAACACACACATATATATATTAT [CACACA_site8264] | 7.89 ± 0.66
66 | ATATATATATATATATATATATATATATATAAGTGG [XGTACX_negctrl_site90] | 9.22 ± 0.54

Row | Sequence | gcPBM binding intensity (ln)
67 | TATTAATTCATTTTTTTTTTTTTTTTTTTTTTTTTT [CACACA_negctrl_site1215] | 9.61 ± 0.14
68 | TTCATATTTCATATATGTACTTATGTTCAATATAGT [XGTACX_site3811] | 7.7 ± 0.2
69 | TTTTTTATGTTCAATTGTACATATACATATATATAT [XGTACX_site6013] | 8.95 ± 0.092
70 | TAATTACACTTTAAAAGTACATATATAATAACATTA [XGTACX_site379] | 8.05 ± 0.099
71 | AAAATAAGCCATATACGTACATACATATATAAATAT [XGTACX_site4197] | 7.87 ± 0.32
72 | CAAACAATTAAACAAACACACATATACATGTATATA [CACACA_site2060] | 7.4 ± 0.42
73 | TATATAATATTACGTTGTACACTTTAATCTCCCTTC [XGTACX_site5577] | 8.1 ± 0.49
74 | ACTAATATGCAATATTGTACATATATATAGAAATAT [XGTACX_site5273] | 8.04 ± 0.49
75 | ACCATTTGAAAATTCACACACTTTATTTTGTTATAT [CACACA_site5976] | 8.11 ± 0.51
76 | AATATATCGCATAGTTGTACAGAATTTTTACTTTTA [XGTACX_site8192] | 7.83 ± 0.54
77 | ATTGAAAAATAAAAATGTACACATGTAGCATACCAT [XGTACX_site3275] | 8.01 ± 0.61
78 | TATAATCAATGCCAAAGTACATATTAATATATTTAT [XGTACX_site4558] | 7.51 ± 0.52
79 | CACTTTAATTTATGCACACATATGGAACAACAGCCA [CACACA_site994] | 10.2 ± 0.38
80 | TAAGTTTGTCAATCAACACACACCTATTTATTATAT [CACACA_site3919] | 7.57 ± 0.57
81 | CTTAAAATGATAATATGTACACATAAATAATATATA [XGTACX_site8330] | 7.72 ± 0.32
82 | TTTTTTGACATTCCTTTTAATAATTAACGAAAGGCA [GTGCAC_negctrl_site377] | 7.67 ± 0.55
83 | AAATACAAGGGACATGCATACCACTATTTTTTAAAT [TGCATGCA_site588] | 8.38 ± 0.46
84 | TTTATATAATAGTTATGTACTTAAACGAAAGATACA [XGTACX_site8495] | 8.01 ± 0.028
85 | AAAGATATTTTTATCTCACACATATAATATATATAT [CACACA_site5478] | 8.65 ± 0.11
86 | GCATATGTATATAATGTGCACATGGATTATATAAAA | 9.57 ± 0.4
87 | TATTTACAGACATGCGCACACATAAATAAATAATAG [CACACA_site2411] | 8.48 ± 0.66
88 | GTTACTGCATACATAACACACATATTCAAAACACAT [CACACA_site3502] | 8.49 ± 0.49
